Experimental data from PMC10668032.
This is one part of the list. At the low end of the ranking, values are background and their order means little.

Molecular target: SIX1 homeodomain (reference allele) (UniProt Q15475)
Assay: universal protein binding microarray
Settings: Universal all-10-mer PBM (8x60K, AMADID 030236), 300 nM GST-tagged protein, Alexa Fluor 488 anti-GST; buffer, salt, pH and temperature not stated; high values mean tight binding; most listed sequences are background and not binding sites; double strand, one strand shown

Row | Sequence | binding signal
1 | TCGGACCA | -0.0772 E-score
2 | ACTACCTA | 0.157 E-score
3 | AGAGTCCA | -0.209 E-score
4 | ATCATTGC | 0.244 E-score
5 | AGGGTTAG | 0.037 E-score
6 | AAGAGACT | -0.294 E-score
7 | AACTGTTC | -0.285 E-score
8 | TACTCGAA | 0.152 E-score
9 | AACTGCCA | -0.326 E-score
10 | ATCCAGAA | 0.167 E-score
11 | ATTCACAA | -0.132 E-score
12 | AAAAAGAT | -0.134 E-score
13 | ATAACTGC | -0.116 E-score
14 | ATCTACTC | 0.297 E-score
15 | TATAGGGA | 0.206 E-score
16 | ACTAGCAC | -0.0926 E-score
17 | CGCTGACA | -0.113 E-score
18 | AGGCGGAC | -0.211 E-score
19 | AAACTTAC | -0.0749 E-score
20 | AATGCCTG | -0.0586 E-score
21 | ATGGTAGC | -0.0905 E-score
22 | CGCTGCAC | -0.0672 E-score
23 | CACTGAGG | 0.134 E-score
24 | TACGCCCA | 0.118 E-score
25 | ACGAACGT | -0.0804 E-score

Row | Sequence | binding signal
26 | GCGATGAA | 0.0334 E-score
27 | GCATCATA | 0.183 E-score
28 | GTCTGGCA | -0.195 E-score
29 | ATGAAGCG | -0.202 E-score
30 | ATCCATAC | 0.31 E-score
31 | CATTTTAG | -0.201 E-score
32 | TCGAAAAA | -0.1 E-score
33 | CAGTAGCA | -0.0907 E-score
34 | ATCCCAAG | 0.191 E-score
35 | ATTGGTCC | -0.26 E-score
36 | AATGGCCG | -0.166 E-score
37 | ATATTGGA | 0.251 E-score
38 | GAATACCA | 0.278 E-score
39 | AATACACC | 0.336 E-score
40 | GGTTCAGA | 0.0319 E-score
41 | GCGACACC | 0.412 E-score
42 | AAAGGGGG | 0.00365 E-score
43 | CTTGGTGC | -0.161 E-score
44 | AACTCCCT | -0.275 E-score
45 | ACGGTTAC | -0.0244 E-score
46 | AACATTAT | 0.0258 E-score
47 | GTGAGATA | 0.388 E-score
48 | CTCCAGTC | -0.0729 E-score
49 | AGGATTGA | 0.0145 E-score
50 | GAATCAAC | 0.0081 E-score

Row | Sequence | binding signal
51 | AGAAGAAG | -0.0978 E-score
52 | ATTCTATC | 0.0649 E-score
53 | GCGCACAA | -0.086 E-score
54 | CTTATCCA | 0.186 E-score
55 | CCGTGCAA | -0.0484 E-score
56 | AGTAGACA | 0.132 E-score
57 | CCGAAGGC | -0.0959 E-score
58 | GACGGGTA | 0.0282 E-score
59 | CCCGTTTC | -0.0423 E-score
60 | CGCCACCC | -0.122 E-score
61 | CCGGAAGA | -0.0922 E-score
62 | GGACGGAA | -0.191 E-score
63 | AATGCCGG | -0.107 E-score
64 | GACAGCAA | -0.297 E-score
65 | ATACTACG | 0.259 E-score
66 | CGCGTCCA | 0.0316 E-score
67 | AAGAACCT | -0.154 E-score
68 | AGATATTC | 0.219 E-score
69 | GAATAGAA | -0.114 E-score
70 | AGAAGGTA | 0.139 E-score
71 | ACCCATTA | -0.0649 E-score
72 | AAGACCCT | -0.105 E-score
73 | AACAGTCC | -0.226 E-score
74 | CTCTAGGA | -0.0825 E-score
75 | ATTGCAAC | -0.11 E-score

Row | Sequence | binding signal
76 | AGACGAAA | -0.0371 E-score
77 | CGTTTCGA | -0.0806 E-score
78 | AGGCCCGA | -0.0588 E-score
79 | AAAGCCAC | -0.286 E-score
80 | ACGGGCGA | 0.0482 E-score
81 | ACCAGTTG | 0.0409 E-score
82 | CCGACTAC | -0.131 E-score
83 | GCGCAACC | -0.128 E-score
84 | GGCAGACC | -0.117 E-score
85 | AGTACTCG | 0.0868 E-score
86 | AACTTTCT | -0.291 E-score
87 | CACCCGGG | 0.182 E-score
88 | CCCACGTA | 0.0411 E-score
89 | AGACTTTC | -0.275 E-score
90 | CGAATTGA | -0.101 E-score
91 | TCGATGCA | 0.0817 E-score
92 | CTCACCAA | -0.0385 E-score
93 | ATGCCGGG | -0.0212 E-score
94 | CGTCTCGC | 0.167 E-score
95 | AGCAATCG | -0.2 E-score
96 | GTTTCCTA | -0.205 E-score
97 | CCTGGACG | -0.0135 E-score
98 | AATGGTCA | -0.0735 E-score
99 | CCCGTTGA | -0.135 E-score
100 | GAACCGTA | 0.0391 E-score

Row | Sequence | binding signal
101 | ATATATAG | 0.238 E-score
102 | CCTACTGA | -0.0525 E-score
103 | AAGGTTAC | -0.141 E-score
104 | CACAAAGA | -0.0587 E-score
105 | CATTAGAG | -0.12 E-score
106 | CTGGTTGC | -0.0736 E-score
107 | AATGTGGC | -0.284 E-score
108 | ACGCCTAT | 0.0492 E-score
109 | CGGTCCCA | -0.161 E-score
110 | CACAGTCC | -0.209 E-score
111 | AGGCGGGC | -0.11 E-score
112 | AACTAGTA | 0.0559 E-score
113 | CAAACCCA | 0.00758 E-score
114 | ACCCTACT | 0.0505 E-score
115 | ACACTTCC | -0.06 E-score
116 | GCGGTACA | 0.139 E-score
117 | CATTGGAA | -0.143 E-score
118 | AATCGAAC | 0.0496 E-score
119 | CGGGTTTA | 0.116 E-score
120 | AAAGCGAG | -0.162 E-score
121 | ATCGCCTG | 0.206 E-score
122 | GCGTTCTA | -0.184 E-score
123 | TCCCAACA | 0.0089 E-score
124 | CACATTCC | -0.151 E-score
125 | TGGACCAA | -0.269 E-score

Row | Sequence | binding signal
126 | AAAACGTG | -0.278 E-score
127 | GCAGAAAA | -0.106 E-score
128 | AGACAAGA | -0.0218 E-score
129 | AGCCGGCG | -0.0212 E-score
130 | AATATAAA | -0.00775 E-score
131 | CAAACACA | -0.024 E-score
132 | TAAGCTCA | -0.0997 E-score
133 | CTAAACTC | -0.11 E-score
134 | CACCCAGA | 0.0878 E-score
135 | AAAGAGCT | -0.252 E-score
136 | AGTGTCGC | -0.0397 E-score
137 | GATAAGAA | -0.00641 E-score
138 | GCATTGGA | -0.0558 E-score
139 | ACATCCAC | -0.0316 E-score
140 | AATGGACA | -0.0555 E-score
141 | CGTCTAAC | -0.0722 E-score
142 | ACGCTTCA | -0.184 E-score
143 | CGAGATAC | 0.381 E-score
144 | CGTCACCA | -0.163 E-score
145 | GCGCCGAC | -0.203 E-score
146 | CGGCTCGC | -0.0991 E-score
147 | AGAATTGG | -0.0851 E-score
148 | CACCGGCA | 0.188 E-score
149 | ACGGTTTC | 0.0502 E-score
150 | ACTTTCTC | -0.336 E-score

Row | Sequence | binding signal
151 | TTTCGAAA | -0.179 E-score
152 | CAGAGTAC | -0.162 E-score
153 | TAGACCAA | -0.159 E-score
154 | ACTGATTG | -0.145 E-score
155 | CAGCTTAC | -0.0216 E-score
156 | CTGAATGC | -0.355 E-score
157 | GCTACGAC | -0.0787 E-score
158 | CGGCTACC | 0.134 E-score
159 | CCATGGGG | 0.0804 E-score
160 | CCAAGGTC | -0.0369 E-score
161 | TAGAAAGA | 0.00966 E-score
162 | CACCGCGA | 0.131 E-score
163 | GCTCTTGA | -0.188 E-score
164 | CCACGGCC | -0.15 E-score
165 | CTCTAGAG | 0.048 E-score
166 | ACAATGAG | 0.0307 E-score
167 | GGATGACA | 0.0846 E-score
168 | ACTCCTCA | -0.00274 E-score
169 | CCTCGGTC | 0.0728 E-score
170 | CTCTTCCC | -0.0452 E-score
171 | CACTTCTG | -0.0866 E-score
172 | GATGTGAA | 0.0599 E-score
